Among all 48,000 compounds or so, about 450 (0.94%) were called active. The shares of active, inactive and inconclusive entries below differ from those in the screen. The call rests on the fitted dose curve; in most records, active means well fitted inhibition curve with a large enough effect; inconclusive means small, poorly fitted or top-dose-only effect; inactive means no such curve, though single readings can be large or run the other way. Where the call is inconclusive, the potency comes from a doubtful curve fit.
Assay: Primary qHTS for Identification of Small Molecule Inhibitors of Huntingtin Promoter Activity; further: nearly all actives have a fitted effect of over 50% in size
Conditions: HEK293 HTT promoter firefly luciferase reporter (activity 0% = vehicle and -100% = no light), 24 h; activity change, negative = inhibition: at 57.5 µM (top of the series)
In short: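 HEK293 Fluc reporter, 2,500 cells/well, 24 h pre-culture; cpds up to 57.5 uM final, 24 h 37 degrees C; Dual-Glo, 10 min RT; normalized vehicle = 0%, zero RLU = -100%.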
Potency means the concentration at half of the fitted maximal effect; tags describe the fitted curve by direction and shape.

Potency, active:
COc1ccc(CCNC(=O)c2nc(SCc3ccccc3F)ncc2Cl)cc1OC 17.8 µM

Potency, inconclusive:
Cc1ccc(N2C(=O)N(Cc3cc(=O)n4ccccc4n3)c3ccccc3S2(=O)=O)cc1Cl 25.1 µM [inhibitor, single point]
CCOc1ccccc1CNC(=O)Cn1cc2c(n1)-c1c(oc(C(=O)N3CCCC3)c1C)CC2 28.2 µM [inhibitor, single point]
O=C1NC(=O)C(=Cc2ccc3nccc(-c4ccncc4)c3c2)S1 0.153 µM [inhibitor, full curve]
COc1ccc(S(=O)(=O)NCCS(=O)(=O)N2CCN(c3ccccc3)CC2)cc1C 25.1 µM [inhibitor, partial curve, poor fit]
COc1ccc(-c2onc(C)c2C)cc1S(=O)(=O)NCc1ccc(C)o1 10 µM [inhibitor, partial curve, poor fit]
COc1ccc(CCCc2nnc(SCC(=O)Nc3cccc(C)c3)o2)cc1 35.5 µM [inhibitor, partial curve, poor fit]
Cc1ccc2[nH]cc(C(c3ccccc3)c3ccc(C)s3)c2c1 (configuration not stated) 22.4 µM [inhibitor, partial curve]
CCOC(=O)c1ccc(-c2ccc(/C=C(\C#N)c3nc4ccc(C)cc4[nH]3)o2)cc1 11.2 µM [inhibitor, partial curve, poor fit]
CCN(c1ccc(Cl)cc1)S(=O)(=O)c1nnc(NC(=O)c2ccccc2C)s1 31.6 µM [inhibitor, single point]
CC(CNC(=O)C1CCN(C(=O)N2CCOc3ccc(Cl)cc32)CC1)c1ccccc1 (configuration not stated) 22.4 µM [inhibitor, single point]
COc1ccc(S(=O)(=O)c2nnn(-c3ccccc3F)c2C)cc1 25.1 µM [inhibitor, partial curve]
Cc1cccc(N(Cc2cc3ccccc3[nH]c2=O)C(=O)c2cccc(Cl)c2)c1 25.1 µM [inhibitor, partial curve, poor fit]
CCOc1ccc(NC(=O)c2c(Nc3ccccc3C)sc(C(=O)c3ccc(Cl)cc3)c2N)cc1 39.8 µM [inhibitor, partial curve, poor fit]
C=CCn1c(=O)c2cnc(Nc3ccc(N4CCN(C)CC4)cc3)nc2n1-c1cccc(C(C)(C)O)n1 0.485 µM [inhibitor, partial curve]
CC(C)(C)C1CCc2nc(NC(=O)c3ccc([N+](=O)[O-])cc3)sc2C1 (configuration not stated) 0.447 µM [inhibitor, full curve, poor fit]
O=C(CCSCc1cccc(Cl)c1)NCc1ccc(F)cc1Cl 15.8 µM [inhibitor, partial curve, poor fit]
Cc1ccc2[nH]c(CSc3nnc(NC(=O)c4ccccc4F)s3)cc(=O)c2c1 1.78 µM [inhibitor, full curve, poor fit]
COc1cc2c(C(=O)N3CCN(c4cccc(C(F)(F)F)c4)CC3)cn(CC(C)C)c(=O)c2cc1OC 35.5 µM [inhibitor, partial curve, poor fit]
COc1ccc(-c2noc(N3CCC(C(=O)N4CCN(c5ccccc5F)CC4)CC3)n2)cc1 2.82 µM [inhibitor, full curve]
Cc1nn2c(=O)cc(COC(=O)c3ccc(NC(=O)c4cccc(Br)c4)cc3)nc2s1 25.1 µM [inhibitor, partial curve, poor fit]
O=C(Cn1c(=O)oc2cc(S(=O)(=O)N3CCCCCC3)ccc21)Nc1ccc(F)cc1F 22.4 µM [inhibitor, partial curve, poor fit]
Cc1ccc(-n2c(=O)c3ccc(C(=O)NCc4ccco4)cc3n(CC(=O)Nc3ccccc3C(F)(F)F)c2=O)cc1 0.178 µM [inhibitor, partial curve, poor fit]
CCOc1ccccc1CNC(=O)c1ccc(NC(=O)N2CC(C)Sc3ccccc32)cc1 (configuration not stated) 15.8 µM [inhibitor, partial curve, poor fit]
CCOC(=O)c1cccc(NC(=O)NCc2cccn2Cc2ccccc2)c1 39.8 µM [inhibitor, single point]
Cn1c(=O)oc2cc(S(=O)(=O)N3CCCC(C(=O)NCCc4ccc(Cl)cc4)C3)ccc21 (configuration not stated) 39.8 µM [inhibitor, single point]
COc1ccc(CC(=O)Nc2sc3c(c2C(=O)Nc2cccc(Cl)c2)CCCCC3)cc1 39.8 µM [inhibitor, single point]
CCC(=O)N1CCc2cc(S(=O)(=O)CCC(=O)Nc3ccc(OC(F)(F)F)cc3)ccc21 39.8 µM [inhibitor, single point]
O=C1NCCN1CCN1CCC(c2cn(-c3ccc(F)cc3)c3ccc(Cl)cc23)CC1 2.51 µM [inhibitor, partial curve, poor fit]
Cc1nn(-c2ccccc2)c2c1N(CCCC(=O)NCc1ccc(N(C)C)cc1)C(=O)CS2 31.6 µM [inhibitor, single point]
O=C(CC(c1cccs1)N1Cc2ccccc2C1=O)Nc1ccc(F)c(F)c1 (configuration not stated) 28.2 µM [inhibitor, single point]
Cc1cccc(CN2C(=O)N(c3ccc(C(C)C)cc3)S(=O)(=O)c3ccccc32)c1 39.8 µM [inhibitor, single point]
COc1ccc(C(=O)Nc2ccc3oc(-c4cccnc4)nc3c2)cc1 14.1 µM [inhibitor, partial curve]
Cc1ccc(Cl)cc1N1CCN(C(=O)c2ccc(NC(=O)c3nsc4ccccc34)cc2)CC1 35.5 µM [inhibitor, single point]
CCOc1ccc(-n2c(/C=C/c3cccc(F)c3)nc3cc(OC)c(OC)cc3c2=O)cc1 39.8 µM [inhibitor, single point]
CC(C)(C)OC(=O)N1CCC(c2c(C(=O)Nc3ccc4c(c3)OCCO4)cnn2-c2ccc(Cl)cc2)CC1 25.1 µM [inhibitor, single point]
O=C1CN(C(=O)COc2ccc(Cl)cc2)C(c2ccccc2)c2cc(Br)ccc2N1 (configuration not stated) 39.8 µM [inhibitor, partial curve, poor fit]
COc1cc2ccccc2cc1C(=O)Nc1cccc(-c2nc3ccccc3o2)c1 17.8 µM [inhibitor, partial curve, poor fit]
COc1cc(-c2nc3ccc(Cl)cn3c2Nc2ccc3c(c2)OCO3)ccc1O 22.4 µM [inhibitor, partial curve, poor fit]
CC1=C(C(=O)Nc2ccc(C)cc2Cl)C2(CCCCC2)OC1=O 31.6 µM [inhibitor, partial curve, poor fit]
C=CCNc1c(O)cc2c(O)c1C[C@@H](C)C[C@H](OC)[C@@H](O)[C@@H](C)C=C(C)[C@H](OC(N)=O)[C@@H](OC)C=CC=C(C)C(=O)N2 5.44 µM [inhibitor, full curve]
COc1ccc2c(c1)CCc1c(C(=O)Nc3c(C)nn(Cc4c(Cl)cccc4Cl)c3C)noc1-2 0.891 µM [inhibitor, full curve]
O=C(Nc1cccc(Nc2ncc(Br)c(NCCc3cnc[nH]3)n2)c1)N1CCCC1 19.3 µM [inhibitor, partial curve]
CCc1ccccc1NC(=O)c1cc2sc(Cl)cc2n1CC 39.8 µM [inhibitor, single point]
Cc1cc(Br)ccc1NC(=O)c1coc(=O)c2ccccc12 10 µM [inhibitor, partial curve]

Activity change, negative = inhibition, inactive:
O=C(CS(=O)(=O)c1cccc2nsnc12)N1CCN(c2cccc(C(F)(F)F)c2)CC1 -28.1%
CCCN(CCC)C(=O)C(CCC(=O)OCCCN1CCN(CCOC(=O)Cc2c(C)n(C(=O)c3ccc(Cl)cc3)c3ccc(OC)cc23)CC1)NC(=O)c1ccccc1 (configuration not stated) -17.3%
O=C(NCc1ccccc1)c1cc2sccc2n1Cc1ccc(Cl)cc1 -6.5%
Cc1nn2c(=O)cc(COC(=O)c3ccco3)nc2s1 -3.12%
COc1ccc(N2C(=O)CS(=O)(=O)C23C(=O)N(Cc2cccc(F)c2)c2ccccc23)cc1OC (configuration not stated) -25.5%
O=C(Nc1c(C(=O)N2CCN(c3ccccc3)CC2)oc2ccccc12)c1ccc(Br)o1 -21.3%
CCOc1ccc(NC(=O)C2CC(=O)NC(=Nc3ccc(Cl)c(Cl)c3)S2)cc1 (configuration not stated) -12.2%
Cc1cn2c(=O)cc(COC(=O)c3cccc(NC(=O)c4ccc(C(C)(C)C)cc4)c3)nc2s1 -10.7%
Cc1ccccc1-c1nc2scc(CCNS(=O)(=O)c3ccccc3)n2n1 -37.4%
CC[C@H]1OC(=O)[C@H](C)C(=O)[C@H](C)[C@@H](O[C@H]2O[C@H](C)C[C@H](N(C)C)[C@@H]2O)[C@](C)(OC)C[C@@H](C)C(=O)[C@H](C)[C@H]2N(CCCCn3cnc(-c4cccnc4)c3)C(=O)O[C@]12C -15.4%
CC(C(=O)NCc1cccc(Br)c1)n1ncn2cccc2c1=O (configuration not stated) -10.6%
CC(C)c1ccccc1NC(=O)CSc1nnc(COc2ccccc2)o1 0.292% [at 11.5 µM]

Source: PubChem BioAssay AID1508623 (National Center for Advancing Translational Sciences (NCATS), 2021)
